Measured values taken from PubChem BioAssay AID1159614 (National Center for Advancing Translational Sciences (NCATS), 2016).
Out of some 45,000 compounds screened, about 65 (0.1%) were called active. Calls follow the shape of the dose curve; as a rule, active = well fitted activation curve with a large enough effect; inconclusive = small, poorly fitted or top-dose-only effect; inactive = no such curve, though single readings can be large or run the other way. The list shows a part of the results.
Also: 0% is about no effect; nearly all actives have a fitted effect of over 65% in size.

The compounds below were run against Galactocerebrosidase (Homo sapiens) (UniProt P54803) (assay: A Novel Cell-Based Assay to Identify Small Molecules for B -Galactocerebrosidase). Conditions: 145M-Twi-hGALC-G270D cells (Twitcher mouse brain line with human GALC G270D), HMU-beta-Gal fluorescence, 48 h; series mostly up to 57.5 µM; activation: at the top concentration.
Sequence of UniProt P54803 (P54803 whole entry, looked up): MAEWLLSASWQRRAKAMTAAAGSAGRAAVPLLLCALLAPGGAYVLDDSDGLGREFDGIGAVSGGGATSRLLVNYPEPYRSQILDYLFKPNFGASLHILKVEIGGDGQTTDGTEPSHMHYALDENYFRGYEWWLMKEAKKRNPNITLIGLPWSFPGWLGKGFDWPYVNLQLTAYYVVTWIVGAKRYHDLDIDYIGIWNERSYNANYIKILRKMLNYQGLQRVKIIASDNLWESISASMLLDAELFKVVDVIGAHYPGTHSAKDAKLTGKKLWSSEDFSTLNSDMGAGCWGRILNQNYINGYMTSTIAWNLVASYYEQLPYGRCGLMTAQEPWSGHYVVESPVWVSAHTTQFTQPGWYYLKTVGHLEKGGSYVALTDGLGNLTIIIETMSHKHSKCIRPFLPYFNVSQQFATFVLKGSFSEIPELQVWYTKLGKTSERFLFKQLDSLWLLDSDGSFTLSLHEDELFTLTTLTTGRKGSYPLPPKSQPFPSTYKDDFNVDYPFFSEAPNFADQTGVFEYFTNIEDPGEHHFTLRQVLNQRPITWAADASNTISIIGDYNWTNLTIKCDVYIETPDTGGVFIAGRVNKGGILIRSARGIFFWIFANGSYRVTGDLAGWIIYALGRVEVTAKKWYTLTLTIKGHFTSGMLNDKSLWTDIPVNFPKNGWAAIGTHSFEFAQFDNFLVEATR
Summary of the method: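 Fluorescence readout: HMU-β-gal cleavage by mutant GALC (0.1 mM final, citrate/phosphate pH 5.2 with 1 mg/mL taurocholate), stopped with carbonate/bicarbonate plus Triton X-100. Cells: murine Twitcher 145M-Twi expressing human G270D GALC; qHTS for activators.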
`Cc1oc(-c2cccc(Cl)c2)nc1CSc1nnc(C)n2c1cc1occc12` was tested, and the “activation” value was inactive: -13.1%. `CC(=O)c1cc(-c2ccccc2)n(CCC(=O)NCCc2ccccc2)c1C` was tested, and the “activation” value was inactive: -13%. With `CC(=O)NCc1nc2cccnc2n1Cc1ccccc1` the “activation” value was inactive: 1.43%. In the case of `COC(=O)c1c(NC(=O)c2nc(SC)ncc2Cl)sc2c1CCCC2`, the “activation” value is reported as inactive: -2.24%. With `Cc1ccc(Cc2nc3ccccc3nc2SCC(=O)NCCc2ccccc2)cc1` the “activation” value was inactive: -1.21%. With `Cc1cccc(Cc2c(C)nc3nc(SCC(=O)NCc4ccc(F)cc4)nn3c2C)c1` the “activation” value was inactive: -17.1%. With `C/C(=C1\CCOC(=O)S1)N(C=O)Cc1cnc(C)nc1N` the “activation” value was inactive: -3.5%. In the case of `CCc1cccc(C)c1NC(=O)Cn1c(=O)n(-c2cccc(C)c2)c(=O)c2c1c1cc(C)ccc1n2C`, the “activation” value is reported as inactive: -18.5%. In the case of `COc1ccccc1N1CCN(C(=O)Cn2cnc3sc(C)c(S(=O)(=O)N4CCC(C)CC4)c3c2=O)CC1`, the “activation” value is reported as inactive: -5.63%. `COc1ccc(Cl)cc1N(C)C(=O)Cc1noc2ccc(C)cc12` was tested, and the “activation” value was inactive: -13.1%. With `COc1cccc(-c2nc(SCc3ccc(C)cc3)n3[nH]c(=O)cc3n2)c1` the “activation” value was inactive: -5.78%. In the case of `CC(C)(C)OC(=O)N1CCC(c2c(C(=O)N3CCC(c4ccccc4)C3)cnn2-c2ccc(Cl)cc2)CC1` (configuration not stated), the “activation” value is reported as inactive: -14.9%. For `Cc1ccc(C)c(N2CCN(c3nc4ccc(Cl)cc4n4cnnc34)CC2)c1`, the “activation” value was inactive: 10.4%. With `CCOC(=O)c1c(C)oc2ncnc(N3CCN(c4ccccc4)CC3)c12` the “activation” value was inactive: -20.8%. In the case of `O=[N+]([O-])c1ccc(S(=O)(=O)N2CCn3cccc3C2c2ccccc2F)cc1` (configuration not stated), the “activation” value is reported as inactive: -19.6%. `CC(NC(=O)C1CCN(S(=O)(=O)c2ccc3c(c2)oc(=O)n3C)CC1)c1ccccc1` (configuration not stated) was tested, and the “activation” value was inactive: -14.8%. With `CN(C(=O)c1c2c(nc3ccccc13)C(=O)N(C1CCCCC1)C2)c1ccc(F)cc1` the “activation” value was inactive: -12.4%. For `COC(=O)c1c(SCC(=O)Nc2cccc(Cl)c2C)[nH]c2ccccc2c1=O`, the “activation” value was inactive: -15.5%. For `Cc1ccc(S(=O)(=O)NCCc2csc3nc(-c4ccccc4F)nn23)cc1C`, the “activation” value was inactive: -8.58%. For `Cc1ccc(-c2cc3c(n2-c2ccc(F)cc2)CC(C)(C)CC3=O)cc1`, the “activation” value was inactive: -13.5%. For `Cc1ccccc1OCc1nnc(SCc2cc(=O)c3ccc(C)c(C)c3[nH]2)n1C`, the “activation” value was inactive: -2.81%. With `COc1ccccc1-c1nc(S(=O)(=O)c2ccccc2)c(N2CCC(C)CC2)o1` the “activation” value was inactive: -22.8%. In the case of `COc1ccc(Nc2nc3ccccc3nc2NS(=O)(=O)c2ccc(Cl)cc2)cc1OC`, the “activation” value is reported as inactive: -35.6%. For `COc1ccccc1CCNC(=O)C(=O)NCC(c1ccco1)S(=O)(=O)c1ccccc1` (configuration not stated), the “activation” value was inactive: -17%. For `Cc1cccc(NC(=O)CSc2nc3ccccc3c3nc(CCc4c(C)n[nH]c4C)nn23)c1`, the “activation” value was inactive: -7.18%. `CCC(C(=O)NCc1cccc(Br)c1)n1nc(C)c2c(C)n(-c3ccccc3)nc2c1=O` (configuration not stated) was tested, and the “activation” value was inactive: -13.8%. For `CC(=O)Nc1ccc(NC(=O)c2cnn(-c3ccccc3)c2C2CCN(C(=O)OC(C)(C)C)CC2)cc1`, the “activation” value was inactive: -9.03%. With `O=S(=O)(Nc1cccc(F)c1)c1ccc2[nH]c3c(c2c1)CCCCC3` the “activation” value was inactive: -9.22%. For `CCOC(=O)c1cccc(NC(=O)CSc2nc3cc4ccccc4cc3[nH]2)c1`, the “activation” value was inactive: -18.1%. For `CC(C)c1cnc2c(c1SCC(=O)O)c(=O)n(C)c(=O)n2C`, the “activation” value was inactive: -13.4%. With `NS(=O)(=O)c1cc(C(=O)NN2C[C@H]3[C@H]4CCC(C4)[C@H]3C2)ccc1Cl` the “activation” value was inactive: -17.7%. `COc1cc(OC)cc(C(=O)Nc2ccc3c(c2)OCCO3)c1` was tested, and the “activation” value was inactive: -14%. With `O=C(CNC(=O)c1ccccc1F)OCc1cc(=O)n2nc(C3CC3)sc2n1` the “activation” value was inactive: -11.9%. `CCOc1ccccc1Nc1nnc(-c2cc3cc(Cl)ccc3oc2=O)s1` was tested, and the “activation” value was inactive: -16.5%. With `CC(NC(=O)c1cc2ccccc2o1)c1ccccc1` (configuration not stated) the “activation” value was inactive: -15.8%. `CCC(=O)N1CCc2cc(CNC(=O)c3ccc(C#N)cc3)ccc21` was tested, and the “activation” value was inactive: -6.19%. In the case of `COc1ccccc1CN1CCN(C2CCN(C(=O)Nc3ccccc3)CC2)C(=O)C1=O`, the “activation” value is reported as inactive: -16%. For `Cc1ccc(NC(=O)Cn2c(-c3nonc3N)nc3ccccc32)cc1C`, the “activation” value was inactive: 0.219%. In the case of `CCc1ccc(S(=O)(=O)c2cn(C)c3cc(F)c(F)cc3c2=O)cc1`, the “activation” value is reported as inactive: -12.6%. In the case of `CCOC(=O)c1c(C)[nH]c(C)c1S(=O)(=O)N1CCCC(C(=O)Nc2cccc(C)n2)C1` (configuration not stated), the “activation” value is reported as inactive: 1.9%. With `CCOc1ccc(NC(=O)CSC2=Nc3ccccc3C3=NC(Cc4ccccc4)C(=O)N23)cc1` (configuration not stated) the “activation” value was inactive: -19.7%. In the case of `CCCn1nc(NC(=O)c2cccc(Cl)c2)c2cc3cccc(C)c3nc21`, the “activation” value is reported as inactive: -1.62%. In the case of `COc1ccc(-c2nc3sc(CCNC(=O)C(=O)Nc4ccc(C)c(F)c4)c(C)n3n2)cc1`, the “activation” value is reported as inactive: -17.6%. `COc1cc(NC(=O)c2cc3ccc4cccnc4c3[nH]2)cc(OC)c1OC` was tested, and the “activation” value was inactive: -2.12%. With `COc1ccccc1N1CCN(S(=O)(=O)CCNC(=O)C2CC(=O)N(c3ccccc3)C2)CC1` (configuration not stated) the “activation” value was inactive: -8.85%. For `CCS(=O)(=O)c1oc(-c2ccc(F)cc2)nc1S(=O)(=O)c1ccc(Br)cc1`, the “activation” value was inactive: -18.1%. In the case of `CC(Nc1ccc(-c2nc(-c3ccco3)no2)cc1[N+](=O)[O-])c1ccccc1` (configuration not stated), the “activation” value is reported as inactive: -0.228%. With `Cc1ccccc1NC(=O)CCNC(=O)Cn1ccc2ccccc2c1=O` the “activation” value was inactive: -17.6%. In the case of `CC(C)(C)C(=O)Nc1cccc(C(=O)OCc2cc(=O)n3nc(C4CC4)sc3n2)c1`, the “activation” value is reported as inactive: 15.6%. For `O=C1CN(C(=O)COc2ccc(Cl)cc2)C(c2ccc(F)cc2)c2cc(Br)ccc2N1` (configuration not stated), the “activation” value was inactive: -8.48%. For `CC(=O)C1=C(c2ccc(Cl)c(Cl)c2)N(C(C)=O)n2cnnc2S1`, the “activation” value was inactive: -16.7%. With `Cc1ccc(NC(=O)N2CCN(Cc3nc4ccc(C)cc4o3)CC2)c(Cl)c1` the “activation” value was inactive: 0.722%. For `CCOC(=O)c1ccc(NC(=O)CSc2nc(-c3cccs3)cc(C(F)(F)F)c2C#N)cc1`, the “activation” value was inactive: -8.34%. For `CCOC(=O)N1CCc2c(sc(NCc3sccc3C)c2C(=O)Nc2cc(Cl)ccc2OC)C1`, the “activation” value was inactive: -11.1%. In the case of `CCS(=O)(=O)c1nc(S(=O)(=O)c2ccc(C)cc2)c(NCC(C)C)s1`, the “activation” value is reported as inactive: -14.7%. For `O=C(Cn1c(=O)oc2cc(S(=O)(=O)NCc3ccccc3)ccc21)NCc1ccccc1Cl`, the “activation” value was inactive: -4.67%. With `Nc1ccc2nc(-c3ccc(O)cc3)sc2c1` the “activation” value was inactive: -12.6%. For `CCOC(=O)c1cc(-c2ccccc2)n(CCC(=O)Nc2cc(C)cc(C)c2)c1C`, the “activation” value was inactive: -13.6%. For `COc1ccc(NC(=O)CC2C(=O)N(c3ccc(F)cc3)C(=O)N2CCc2sccc2C)cc1` (configuration not stated), the “activation” value was inactive: -8.7%. `Cc1ccc2scc(N3CCCCC3)c(=O)c2c1` was tested, and the “activation” value was inactive: -6.39%. For `COCCCNC(=O)c1cnn(-c2ccc(F)cc2F)c1C1CCNCC1`, the “activation” value was inactive: -14.3%. `N#C/C(=C1/SC[C@@H](c2ccc(Cl)cc2Cl)S1)n1ccnc1` was tested, and the “activation” value was inactive: -11.9%.
